Some of the results follow.

Results on six molecules are retold here after article PMC12136788.

The labels stand for the following.
T1: UNK ZnF1-3 (human, UniProt Q9C0B0 31-174)
T1 sequence: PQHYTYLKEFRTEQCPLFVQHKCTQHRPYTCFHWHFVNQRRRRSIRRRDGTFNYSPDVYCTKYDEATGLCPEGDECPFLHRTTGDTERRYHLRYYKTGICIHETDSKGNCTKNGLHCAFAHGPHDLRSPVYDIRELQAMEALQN

B1: chr16:20679341:20679342:+_ENSMUSG00000045983_ENSMUST00000044783|mus_mus|motif|central (ssRNA)
RNA: GGGAGUUCUACAGUCCGACGAUCUGGGGGUGGUGAUGGGGUUGGAGAAGGCGACGAAGGCUGAGAUUCUGUGCCAGGGCGGUGCUCUGGGCCAGGCAGUCCUGGCCGCCCCCCAAUGGCUGCUCCCUGCGACCGGUCAUCUGGCAACAGAGGAUUGAGCAUCA
B2: chr12:42180722:42180723:-_ENSMUSG00000036295_ENSMUST00000043884|mus_hu|mus_mus_mus_hu_True|8_18 (ssRNA)
RNA: GGGAGUUCUACAGUCCGACGAUCCUGUAGGAGAAGAAUCUGUGUGUUAGCUGGCAAUCUGGCUGGGAAAGUUAAAAGACCUAAAUCAUUACAAUCCACUGUAGAUGCUUCCAUAUAGAUGGAUCUCGGGGUAAACCAAGGCCUCAACAGAGGAUUGAGCAUCA
B3: chr7:56126341:56126342:+_ENSG00000146731_ENST00000540286|hu_mus|hu_hu_hu_mus_True|1_18 (ssRNA)
RNA: GGGAGUUCUACAGUCCGACGAUCCAUGUUUCUCCUCUUGGCUCUGCGCAGAGCUACGAUCCCUUCUUUCGCAAGGGCAUCUAAGGAAAAGGGGUCAAUCCCCUUUUGAUUAAUAACAACAAAUCCUUUAUCUGAGUCGCCACACAACAGAGGAUUGAGCAUCA
B4: chr3:108421708:108421709:+_ENSMUSG00000040389_ENSMUST00000051145|mus_mus|FALSE|FALSE (ssRNA)
RNA: GGGAGUUCUACAGUCCGACGAUCGCCAAGAAGGACUUCACUUUCUGUAAUUUCUUCACCAGUUGCUUUACUCUGACAAAAUUCUACGCAGCAUUCAUAAAGUAGGCCCUUCAUUACGAGCUGGAAUAAGCGAUUGUUACUUGCCAACAGAGGAUUGAGCAUCA
B5: 33155842_33155962_432_CDS_ENSG00000170275_ENST00000320954|human|control|control (ssRNA)
RNA: GGGAGUUCUACAGUCCGACGAUCCUGGCGGAAGGCUGGCAGGCCCUGCUUGCAGCGCUUGAGGCAGUGCGCGCGGCGCAGCAGGCCCCCGAAGAGGCGCAGCUCGGGAUAGCUGGCGAGGCCGGCGGCGGGCUCGGGCUGCGGCAACAGAGGAUUGAGCAUCA
B6: chr7:99593380:99593381:+_ENSMUSG00000052572_ENSMUST00000098308|mus_mus|FALSE|FALSE (ssRNA)
RNA: GGGAGUUCUACAGUCCGACGAUCCUGGGGUGAGAAGGCUGCCCAACUCUAGGGCAGAGAGCCCAUCAGAGGUUCAUCCCUAUACCUGGUACUUUGAGCAAACCCAAGCCUUCCUGCAUACUGUGAUGUCUUUUCCGUCCCACCCAACAGAGGAUUGAGCAUCA

This assay has as its target T1, UNK ZnF1-3. Put plainly: nsRBNS (natural sequence RNA bind-n-seq); RBNS binding buffer (assumed for nsRBNS): 25 mM Tris pH 7.5, 150 mM KCl, 3 mM MgCl2, 0.01% Triton X-100, 500 ug/ml BSA, 20 U/ml SUPERase-In, 4 C; UNK is unkempt and MSI1 is Musashi-1; names of the RNAs are library labels; protein concentration not given here; high values mean tight binding.
Molecule B1 gave a binding signal of 0.948 enrichment R.

The molecule B2 registered a binding signal of 1.02 enrichment R.

B3: the binding signal worked out at 0.936 enrichment R.

Molecule B4 registered a binding signal of 0.935 enrichment R.

B5 came in with a binding signal of 0.725 enrichment R.

For B6, the binding signal was determined as 1.38 enrichment R.
